Test results taken from the supplement of paper PMC3334620.
Whole data set: some 33,000 sequences, median “E-score (-0.5 to 0.5)” near -0.032, cut for the highest 2% near 0.36. This is one part of the list.

Target: T1, Sko1 (UniProt Q02100)
T1 sequence: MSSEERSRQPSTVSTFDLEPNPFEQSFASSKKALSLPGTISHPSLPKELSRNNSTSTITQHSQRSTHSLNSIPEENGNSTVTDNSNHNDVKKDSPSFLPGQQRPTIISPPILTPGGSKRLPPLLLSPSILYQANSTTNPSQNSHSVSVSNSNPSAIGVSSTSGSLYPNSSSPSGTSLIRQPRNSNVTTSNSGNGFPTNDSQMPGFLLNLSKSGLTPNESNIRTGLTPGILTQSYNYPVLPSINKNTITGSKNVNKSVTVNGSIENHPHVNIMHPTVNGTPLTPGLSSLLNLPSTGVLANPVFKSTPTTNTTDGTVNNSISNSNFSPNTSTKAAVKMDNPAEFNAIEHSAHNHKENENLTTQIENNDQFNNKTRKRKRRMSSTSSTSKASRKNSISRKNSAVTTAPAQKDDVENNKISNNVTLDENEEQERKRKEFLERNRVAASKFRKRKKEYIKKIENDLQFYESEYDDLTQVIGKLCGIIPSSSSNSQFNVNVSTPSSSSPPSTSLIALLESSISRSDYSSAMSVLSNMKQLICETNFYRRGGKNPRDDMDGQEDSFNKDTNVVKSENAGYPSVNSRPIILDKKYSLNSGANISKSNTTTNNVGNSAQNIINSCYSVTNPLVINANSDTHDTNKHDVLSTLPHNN
Assay: PBM E-score (8-mer binding enrichment) (E-score (-0.5 to 0.5)); higher = stronger / more preferred TF binding; most listed sequences are background and not binding sites
Conditions: protein concentration: 200 nM; construct: GST-full length
Procedure: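 Universal 'all 10-mer' protein binding microarrays (Agilent AMADID 015681) probed with GST-tagged S. cerevisiae TFs (full-length or DBD) made by in vitro transcription/translation (PURExpress), about 100-200 nM. Bound TF was detected with fluorescent anti-GST. Each ungapped 8-mer (which stands for itself and its reverse complement) is scored by the PBM enrichment score (E-score), a modified Wilcoxon-Mann-Whitney statistic from -0.5 to +0.5, computed with the Universal PBM Analysis Suite. Scale: above 0.35 generally sequence-specific binding.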

Sequence	PBM E-score
TCGTTTAA	0.183
AGAATTTA	0.112
TCGCGACA	-0.0189
AAGCATGA	0.0422
CCAGGGGA	-0.391
CTTACCGA	0.0604
GGCGATAC	-0.0442
TCGCAAAA	0.0979
TCGCTCAA	-0.0492
ATATCATC	0.238
CTAAACCA	0.0153
AATGTGAA	0.214
ACGGATTA	0.0137
ACTGCGCT	-0.00019
TCGTACCA	0.111
CCAGTCTC	-0.22
CCACCACG	0.23
GCCAAGCC	-0.284
AACCTCAC	-0.0124
ACTCTGGA	0.0694
CCTAGAAG	-0.17
CTGAATTC	-0.106
ATGTTCCA	-0.0276
AGGCTTCA	-0.302
ACTGGAGG	-0.358

Sequence	PBM E-score
AGATAGTG	0.0573
GCTACCAA	-0.167
GCCGCGCC	-0.269
AAAGCCTG	-0.116
GCGTTGCA	0.0662
GCCTCGAA	-0.149
TAGGCCTA	0.108
ATAGGGAC	-0.231
AGACTGTA	-0.0593
ATCACGTC	0.42
AATGAAAA	0.16
ACTGTCGG	-0.185
AATGGTGG	-0.13
TCCTGAAA	0.0812
CCGTCCAC	-0.113
AGGTTATC	-0.223
CTACGATA	0.183
GTGGCGCA	0.0382
ATAAAAGA	0.116
GCTCTAAA	0.0432
CCTATTCC	-0.0902
GCGTCGGA	0.0489
AGATCGGG	-0.268
AGGTTCGA	0.081
AATGATTG	0.118

Sequence	PBM E-score
ACAAAGCC	-0.0169
ATGTCAAC	0.166
AGGATCCG	-0.257
TAAACACA	0.133
TCCAGCAA	-0.0124
AGTCGGAA	-0.0901
GGGTGACA	-0.0564
CGGTTTAG	-0.298
AGCAGAAT	0.102
GACGGACC	-0.0678
AGGGAACT	-0.272
GCTATGGA	-0.0316
ATGAATAA	0.0192
CGCGCATC	0.0476
CTCCTTCC	-0.0999
ACGCAGAT	0.155
CAAGGGCG	-0.108
ATCTGGGA	-0.147
CAAGATTC	0.0386
ACGCTTGG	0.0624
CTGCTTGA	-0.193
GAATCAGA	0.0109
AGATAGAC	-0.00149
ATATATGC	0.142
AGCTAACT	-0.0352

Sequence	PBM E-score
ACAGTATC	0.179
AGTCAAGC	-0.191
ACGCGCCA	0.0509
CAAAGGAC	-0.185
ATTTTTAA	0.305
CGATGGTA	-0.163
GCAACACC	0.00519
CCACCCAA	-0.263
GACGATGC	0.169
AATAACGG	0.138
TCGCGAGA	0.0253
AGCTACGG	-0.193
GCCGTTAC	0.0343
CTCCTGTC	-0.2
ATAAGGAG	-0.159
GGTGGCAC	-0.228
CTCCATCA	-0.113
AATGGGCA	-0.106
CGAAACCG	-0.0688
GCCACAGA	-0.259
CAACTATC	-0.0298
CTGTGCAC	-0.139
CAACAAGG	0.182
AAAAATGA	0.209
CGCGCAAA	0.187

Sequence	PBM E-score
AAGGGCCA	-0.192
TCCACTAA	-0.18
ACTGCGTA	0.343
ATAACATA	0.261
CGCCCGAG	-0.261
CTGGGTAA	-0.062
ACTCCTAA	-0.0213
AATGGCCA	-0.221
AGCTTTCA	-0.0116
ACCCCGAT	-0.285
CGACGGTC	-0.224
GGTTGGAC	-0.245
AAGTGCTA	-0.0182
AGCGTCGA	0.122
CAAACAGC	0.0209
CACCTTGC	-0.0664
TGGCTACA	0.0555
CAAACAAA	0.0906
AAGGGAGA	-0.281
GATCATGA	0.25
CTCATCAC	0.0999
GCTGCATA	0.106
TCCGGTCA	-0.155
AATGTGCT	0.144
AGGGCCTA	-0.258

Sequence	PBM E-score
ACGCTTTC	-0.0714
CTGGCATC	-0.216
AATCCGCA	-0.0579
CTATGGTC	-0.274
CTGGCGTA	0.138
AAGGTATC	-0.175
ATACACGC	0.221
CTGCCCCA	-0.194
ATCGGGTG	-0.0893
GCTATGAA	0.063
GAAACTAA	0.102
ATTGTACG	0.335
GTCCAGTA	-0.0738
AACACAAT	0.213
CACTACTG	0.009
GAAGGCCA	-0.252
AATAACAA	0.194
CCAAGCCA	-0.167
AAGAAAAG	-0.011
TCGTACAA	0.206
GGGGCGTA	-0.127
CCGGCTGA	-0.096
CACTACCG	-0.205
ACTTTGTC	0.0337
CCAGCTCA	-0.195

Sequence	PBM E-score
CCCAGATA	-0.285
ATTGACCG	0.0898
ATCTTATA	0.099
ACCATTCA	0.12
CAACGCGG	-0.0308
ACAGCCGC	-0.297
ATAGAGTA	0.121
TCGACACA	0.0874
GGTGCGAA	-0.0274
GGTTCAAC	-0.0599
AAGATAGT	-0.0319
ACAAGCCG	-0.174
GAACACGA	0.0541
GTCGGGAA	-0.105
CCCCCGTA	-0.209
CTACTGAA	0.0759
TACTTCAA	0.173
CGGGCAAG	-0.102
CCTACCTC	-0.227
ATGACCCA	0.112
CCCATAGC	-0.155
CTATATTA	0.253
CCCTGGAG	-0.194
ATTGTAGG	0.102
AGGGGACA	-0.312

Sequence	PBM E-score
CCAAATTC	-0.055
ATACGTAC	0.473
ATTACAGA	0.0438
AAGAAGTG	-0.0945
CGTTCATC	0.101
CATGTCTC	-0.0101
CAAGGTAC	0.0328
CGTCTGAG	0.0173
CAACGTAA	0.447
ATAATTGC	0.16
CGATAAGA	-0.0377
AGAGTTGG	-0.0544
GGTGGCAA	-0.169
CCCTGAGC	-0.145
ACTTCACC	-0.0315
AGCTTATA	-0.00432
CATTGGAA	0.165
ACCATCAG	-0.131
CAAAGTAG	-0.0207
AATCTCCA	0.0527
CGGGGGAC	-0.361
ACTATAGG	-0.0997
AGGCAGAC	-0.254
GACTTCTA	-0.19
ACTCGACT	-0.277

Sequence	PBM E-score
CCTAAGTC	-0.227
AGTGAAAT	0.147
ACGGTGGA	-0.253
GAGCCCAC	-0.173
CCTGAACA	-0.0824
CTGGCCTC	-0.297
CCTCTAAG	-0.185
GGGCGTAA	-0.0261
AACTTCAG	-0.00953
AGGAGTTC	-0.12
GTGATTGA	0.176
CGCAAACC	0.00853
AAGTGTAC	0.121
GGTTGAAA	-0.0145
AAGGAAGA	-0.0665
ACCTGCTG	-0.0289
AAACCCGA	-0.0523
AGGCATGC	-0.0864
CGCGAGAC	0.125
CCCATGTA	-0.014
GGCCTCTA	-0.311
GAGATAGA	-0.0409
TCCATGGA	0.0902
TATGCCCA	-0.205
AAATGCAC	0.0801

Sequence	PBM E-score
ATCAAGTG	-0.0569
TAGTGTAA	0.135
CCATATTA	0.0207
TCGCGGCA	-0.261
CACGACTG	-0.224
CCTACGGC	-0.34
ATGCGATC	0.0716
GATCATAA	0.203
AGTCCTAC	0.0377
AAACATAC	0.14
CATTAATC	0.155
AGGACCAT	-0.0107
GGAGGTCA	-0.302
CGAGCTAC	-0.0876
AGGTTGCG	-0.00639
TACGGTCA	0.17
ACCGTTGC	-0.221
ATGTCAAG	0.187
AAATAGGC	-0.146
AGTATGGG	-0.0617
CTAATAGC	0.0413
CCCAAATA	-0.00888
TAAATGGA	0.0937
GAAGACCC	-0.346
AAGTGCGC	0.03

Sequence	PBM E-score
GTATAAAC	0.189
GAGGCGCA	-0.182
CATAAGAA	0.23
GGAGCCTA	-0.278
GCGAACCA	0.0513
CCACGCAG	0.057
ATGAAAGG	-0.00144
TAAGAAGA	0.115
ATACCGAT	-0.272
AAAGATGC	-0.0989
AATTATAA	0.204
TACCTTGA	0.0406
CGACTCCC	-0.233
ACCATACT	-0.0266
GGACACCC	-0.312
AAATGAGT	0.0777
ACGAAAGT	0.287
GCAAGCGC	-0.139
AACCAATC	-0.0284
AAGCGAGC	-0.107
TGGACCCA	-0.209
ATACATAG	0.146
CATGACAG	0.0237
ATAAAACC	-0.0531
CTACGCGA	0.167

Sequence	PBM E-score
AACTTCAA	0.0208
ATAAGAGA	0.0988
GTGAAATA	0.16
CAGCTTAA	0.0939
GAACCTGA	0.0507
ACACGACT	0.161
GGACAACA	-0.107
ACCTTCGA	-0.189
CATCGCAA	0.00796
AGATACAT	0.211
TCACGGGA	0.00178
TGCGCCCA	-0.205
TGACAAAA	0.252
CCCGTCAG	-0.214
AACTGTGA	0.101
GGAAAGTA	0.125
ACCCCTCA	-0.252
CTACCCCA	-0.119
AGCAGCGG	-0.305
ACCGCTCT	-0.237
CTGATCTA	0.0695
GTGCTGTA	-0.00064
GAGACCGC	-0.32
CGCTTGTC	-0.0955
CATGAATC	-0.00158

Sequence	PBM E-score
CCAGCATC	-0.141
AATCGTAA	0.323
CCGAGTCA	-0.208
TACCCGGA	-0.0109
GATAAAAC	0.167
CCAATGGC	-0.21
AGTCAGCC	-0.09
CACTAGGC	-0.247
AGGAGTGG	-0.191
CACCAAAA	0.111
CAATCATA	0.236
TAAGGGCA	-0.00876
ACCAGGGC	-0.235
ATCGGTAG	-0.0793
AACACTGC	0.0957
ACTACGGA	-0.036
ATTCAAGC	0.106
TCTGGTCA	-0.0951
ATAAAGAA	0.167
AAAAGGTA	0.0261
ACTCCGAA	-0.148
CATGTAAA	0.179
ACTATTAG	-0.0278
TAGTCATA	0.216
AATACCAT	0.196

Sequence	PBM E-score
GGAAGACA	-0.177
CAAATGAA	0.127
TCCCCCCA	-0.205
CCCGCAGA	-0.282
GCCTTGAA	-0.129
AATCCTAG	-0.0162
ATGCGATA	-0.0138
GCGGTTTA	-0.0812
ATGCGAGG	0.0459
AAAACCCC	-0.331
TCTACACA	0.0808
AAGTTCCA	-0.0591
ATAGTTTG	0.0325
CAAGGGCC	-0.293
AGCCACGC	-0.0218
AAATTGCC	0.102
TAAAGTTA	0.331
GAGGCTCC	-0.187
CCGCGACC	-0.335
